In all, about 350,000 compounds went through this assay and about 9,900 (2.8%) were called active. The inconclusive results got no clear call from the source; some entries with a clear call stand among them for comparison. The call rests on the fitted dose curve; in most records, active means well fitted activation curve with a large enough effect; inconclusive means small, poorly fitted or top-dose-only effect; inactive means no such curve, though single readings can be large or run the other way. No potency is given beside an inconclusive call; the fits are too rough.
experiment: A quantitative high throughput screen for small molecules that induce DNA re-replication in MCF 10a normal breast cells.; further: nearly all actives have a fitted effect of over 50% in size; on activity, positive = re-replication: % of control where 0% means no effect; settings: MCF 10A DNA re-replication, Hoechst nuclear intensity, 48 h; activity, positive = re-replication: at 46.1 µM (top of the series)
Potency means the concentration at half of the fitted maximal effect; tags describe the fitted curve by direction and shape.

Compound	activity, positive = re-replication	Potency
Cc1ccc(S(=O)(=O)n2c(CN3CCCC(C)C3)nc3ccccc32)cc1 (stereo not drawn)	inactive: 11.7%	
Cc1nn(Cc2ccc(Cl)cc2Cl)c(Cl)c1/C=C/C(=O)OCC(=O)NCC(F)(F)F		inconclusive [activator, single point]
C[C@@H]1CN([C@@H](C)CO)C(=O)c2cc(NC(=O)Nc3ccccc3)ccc2O[C@H]1CN(C)C(=O)Nc1cccc2ccccc12		inconclusive [activator, single point]
COc1ccc(NS(=O)(=O)c2cc(NC(=O)[C@@H](NC(=O)c3ccccc3)C(C)C)ccc2C)cc1		active: 18.4 µM
CC1=Nc2ccccc2/C1=C/c1nc(-c2ccc(C)s2)oc1O	inactive: 3.2%	
CN1CCN(C(=S)NC(=O)c2ccc(-c3ccccc3)cc2)CC1	inactive: 0.142%	
COc1cc(/C=C2\SC(=Nc3ccccc3)N(Cc3ccco3)C2=O)ccc1OC(C)C(=O)O (stereo not drawn)		inconclusive [activator, partial curve]
C=CCNC(=S)NNC(=O)C(CCC(C)C)CC(C)(C)O (stereo not drawn)		inconclusive [activator, single point]
CC(NC(N)=O)C(=O)Nc1ccc(Cl)c(S(=O)(=O)Nc2ccc(Cl)cc2)c1 (stereo not drawn)	inactive: 1.48%	
O=S(=O)(c1c(Cl)cc(Br)cc1Cl)N1CCN(C(=S)NC2CC2)CC1		inconclusive [activator, partial curve, poor fit]
CN(C)C(=O)c1cnc(Sc2ncc(C(F)(F)F)cc2Cl)n1C	inactive: 4.1%	
COC(=O)C1CCN(C(=O)NC2CCCCC2)CC1	inactive: -0.219%	
CCC(c1nnnn1Cc1ccco1)N1CCN(c2cc(Cl)ccc2C)CC1 (stereo not drawn)		inconclusive [activator, single point]
Cc1ccccc1C1NC(=O)c2ccccc2O1 (stereo not drawn)	inactive: -0.0181%	
COc1ccc(-c2cc(C(F)(F)F)c(C#N)c(SCC(=O)Nc3nc(C)co3)n2)cc1		inconclusive [activator, partial curve, poor fit]
Cc1ccc(N2CC(C(=O)NCc3ccccn3)CC2=O)cc1 (stereo not drawn)		inconclusive [activator, single point]
CCN(CC)c1ccc(NC(=S)NC(=O)c2cccs2)cc1		inconclusive [activator, partial curve, poor fit]
COc1ccc(C(=O)N(C)C2CCCN(Cc3ccccc3F)C2)cc1OC (stereo not drawn)		inconclusive [activator, partial curve, poor fit]
CC(NCc1cc(Br)ccc1OCC(N)=O)C12CC3CC(CC(C3)C1)C2 (stereo not drawn)		inconclusive [activator, full curve, poor fit]
Cc1cc(Cl)c2oc(C(=O)N(C)CCCCN3CCOCC3)c(C)c2c1		inconclusive [activator, partial curve, poor fit]
O=C(COc1ccc(Cl)cc1Cl)NN=C1c2ccccc2-c2ccccc21		inconclusive [activator, single point]
O=C(c1ccsc1)N1CCCC(N2CCN(c3cccc(C(F)(F)F)c3)CC2)C1 (stereo not drawn)		inconclusive [activator, partial curve, poor fit]
CCOc1cc(NC(=S)NCC2CCCO2)c(OCC)cc1NC(=O)c1ccc(OC)cc1 (stereo not drawn)	inactive: -2.5%	

Compound	activity, positive = re-replication	Potency
COc1ccc(C(CC(=O)N2CCCCC2)C(C)C)cc1 (stereo not drawn)		inconclusive [activator, partial curve, poor fit]
CC(C)=C1C2CCC1C1C(=O)N(NC(=O)COc3ccc(C(C)(C)C)cc3)C(=O)C21 (stereo not drawn)		inconclusive [activator, partial curve, poor fit]
Cc1cc(C)c(NC(=O)CN)c(C)c1		inconclusive [activator, single point]
CN(C)CCCN1c2ccccc2C(C)(C)c2ccccc21		inconclusive [activator, single point]
COc1ccccc1CNC(=O)COC(=O)c1c[nH]c2ccccc12		inconclusive [activator, partial curve]
COc1ccc(C(=O)Nc2ccc(Cl)cc2F)cc1S(=O)(=O)N1CCCC1	inactive: 24.2%	
COc1ccc(NC(=O)COC(=O)C2CC2)cc1S(=O)(=O)N1CCCCC1	inactive: -0.423%	
CC(C)C[C@@H](NC(=O)[C@H](Cc1ccccc1)NC(=O)c1cnccn1)B(O)O	inconclusive: 124% [activator]	
O=P(O)(O)CCP(=O)(c1ccccc1)c1ccccc1	inactive: -3.2%	
CCOC(=O)C1=CN(Cc2ccco2)S(=O)(=O)N(C)C1c1ccc(F)c(Cl)c1 (stereo not drawn)		inconclusive [activator, partial curve, poor fit]
Cc1ccc(NC(=S)N/N=C/c2c(C)[nH]c3ccccc23)cc1		active: 18.4 µM
COc1ccc(-c2cc(C(=O)NCC3CCCO3)c3ccccc3n2)c(OC)c1 (stereo not drawn)	inactive: 6.51%	
COc1ccccc1CC(=O)NC1CC1		inconclusive [activator, partial curve, poor fit]
COc1ccc2c(c1)C(=O)N1[C@H]3c4cc(Cl)ccc4OC[C@@H]3[C@H](c3ccccc3)[C@]1(C)C(=O)N2		inconclusive [activator, single point]
O=C(CN1CCN(c2ncc(C(F)(F)F)cc2Cl)CC1)NC(=O)NCc1ccccc1		inconclusive [activator, partial curve, poor fit]
CC(C)COc1cccc(C(=O)Nc2ccc(N3CCOCC3)cc2N2CCOCC2)c1		inconclusive [activator, partial curve, poor fit]
FC(F)Oc1ccc(NC(=S)NNc2ccnc3cc(Cl)ccc23)cc1		inconclusive [activator, single point]
Oc1c(Br)cc(Br)cc1C=Nc1cccc2ncccc12		inconclusive [activator, partial curve, poor fit]
CCCCC1CC(=O)NC1(C(=O)OCC)C(=O)OCC (stereo not drawn)	inactive: -0.983%	
CCc1ccc(-c2nnn(Cc3nc4ccccc4s3)n2)cc1		inconclusive [activator, partial curve, poor fit]
COc1ccc(NC(=O)c2c(C)noc2-c2snnc2C)cc1		inconclusive [activator, single point]
N=c1n(CC(=O)c2ccc(Br)s2)c2ccccc2n1Cc1ccccc1		inconclusive [activator, single point]
CC(C)Nc1nc(Oc2ccc(Cl)cc2Cl)cc(C(F)(F)F)n1		inconclusive [activator, single point]

Compound	activity, positive = re-replication	Potency
CCCn1cc(CN2CCC(n3nccc3NC(=O)c3ccccc3)CC2)c(C)n1	inactive: 15.2%	
Cc1csc(=N)n1-c1ccc(Cl)cc1	inactive: 3.23%	
O=C1NC(=O)C(Cc2ccc(O)cc2)N1 (stereo not drawn)	inactive: 47.4%	
O=C(Cc1c[nH]c2ccccc12)NCc1ccc(Cl)cc1		inconclusive [activator, single point]
COc1ccc(NC(=O)CSCc2ccccc2C)cc1		inconclusive [activator, partial curve, poor fit]
COc1ccc(C#Cc2c(C=O)n(C)c3ccccc23)cc1		inconclusive [activator, partial curve, poor fit]
COc1ccc(C2=CC(c3c(C)nn(-c4ccccc4)c3Cl)n3nnnc3N2)cc1OC (stereo not drawn)		inconclusive [activator, single point]
CCOc1ncccc1C(=O)Nc1ccc(Cl)cc1		inconclusive [activator, single point]
CCOc1ccc(N(CC(=O)NC2CCCCCC2)S(=O)(=O)c2c(C)[nH]c(=O)[nH]c2=O)cc1		inconclusive [activator, partial curve, poor fit]
CC(C)(C)c1csc(NC(=O)CCc2ccccc2)n1		inconclusive [activator, single point]
C=CC1(C)CN(Cc2ccco2)S(=O)(=O)c2c(F)cccc2O1 (stereo not drawn)		inconclusive [activator, partial curve, poor fit]
O=C(NCc1ccncc1)/C(=N/O)c1ccccc1	inactive: -2.33%	
COCCNC(=O)/C(C#N)=C/c1c(N2CCN(C)CC2)nc2ccccn2c1=O		inconclusive [activator, single point]
O=C(Nc1ccc(F)c(F)c1)c1cc(S(=O)(=O)N2CCN(c3ccccn3)CC2)ccc1F	inactive: 4.34%	
CC1=CC(C)C2(COC(c3ccc[n+](C)c3)OC2)C(C)C1 (stereo not drawn)		inconclusive [activator, single point]
O=C1O[C@H](CN2CCOCC2)CN1/N=C\c1ccc([N+](=O)[O-])o1	inactive: 1.1% [at 20.6 µM]	
CCCCCCN[C@H]1CCC2C3CC=C4C[C@@H](O)CC[C@]4(C)C3CC[C@@]21C (stereo partly drawn)		inconclusive [activator, partial curve, poor fit]
CC(C)COc1cc(=O)[nH]c(SCC(C)C)n1		inconclusive [activator, single point]
CCOc1cc(CNc2ccc(N3CCOCC3)cc2)cc(Br)c1OCC		inconclusive [activator, partial curve, poor fit]
CC1OC2(C)OC(=N)C1(C#N)C(C#N)(C#N)C2c1ccccc1 (stereo not drawn)		inconclusive [activator, single point]
CCNC(=S)N/N=C/c1cccs1	inactive: -5.69%	
CCOC(=O)c1ccc(NC(=O)Nc2ccc(F)cc2)cc1		inconclusive [activator, single point]

— PubChem BioAssay AID624296 (National Center for Advancing Translational Sciences (NCATS), 2012)
